Laboratory results as given in PubChem BioAssay AID1347073 (National Center for Advancing Translational Sciences (NCATS), 2019).
Among all 45,000 compounds or so, about 200 (0.44%) were called active. Not shown: some 7% with an inconclusive outcome. Calls follow the shape of the dose curve; as a rule, active = well fitted activation curve with a large enough effect; inconclusive = small, poorly fitted or top-dose-only effect; inactive = no such curve, though single readings can be large or run the other way. The list shows a part of the results.

assay: qHTS of TDP-43 Inhibitors: NCGC Sytravon Library Screen; details: yeast TDP-43 toxicity rescue, BacTiter-Glo growth, 24 h; series mostly up to 46.1 µM; growth rescue (activation): at the top concentration; also: 0% is about no effect; nearly all actives have a fitted effect of over 55% in size
Procedure, shortened: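 TDP-43-expressing yeast, pregrown in raffinose, seeded at OD600 0.02 in galactose medium with compound for 24 hr at 30 deg C. Growth read by BacTiter-Glo luminescence, so rescue of toxicity appears as activation.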

SMILES	growth rescue (activation)
O=C(O)c1cc2ncc(-c3[nH]ncc3[N+](=O)[O-])cn2n1	inactive: -13.7%
CCOc1cc(/C=C(/NC(C)=O)C(=O)O)cc(Cl)c1OCc1cccc(Br)c1	inactive: -0.004%
CCC(C)(C)NC(=O)c1cc(OC)c(OC)cc1[N+](=O)[O-]	inactive: 5.3%
CN(C)c1cccc(NC(=O)NC2(C)CCS(=O)(=O)C2)c1 (stereo not drawn)	inactive: -1.74%
Cc1cccc(OCC(=O)NCCNC(=O)c2cnccn2)c1	inactive: -1.38%
CN(C)S(=O)(=O)c1cccc(C(=O)Nc2cc(S(=O)(=O)N3CCOCC3)ccc2O)c1	inactive: 10.6%
O=C(C1CCCN1S(=O)(=O)c1cccc2nsnc12)N1CCCCC1 (stereo not drawn)	inactive: 12%
Cc1ccc(CNC(=O)[C@@H](NC(=O)Cc2ccccc2)C(C)C)cc1	inactive: -23.6%
CC(C)c1ccc(CC(=O)N2CCC2(C)C(=O)NCc2cccc3ccccc23)cc1 (stereo not drawn)	inactive: 19.1%
O=C(CSc1nncs1)Nc1cccc2ccccc12	inactive: 27.3%
Cc1ccc(S(=O)(=O)N2CCCCC2C(=O)O)cc1 (stereo not drawn)	inactive: -8.74%
Cc1ccc(-c2noc(CN(C(=O)c3ccc4c(c3)OCO4)C(C)C)n2)cc1	inactive: -5.42%
Cc1cccc(N(C(=O)Cn2nnc(-c3ccc(C)o3)n2)C(C(=O)NC2CCCC2)c2ccncc2)c1 (stereo not drawn)	inactive: -5.73%
COc1ccc(CNC(=O)c2cccc(NC(=O)c3ccccc3)c2)cc1	inactive: 2.17%
COc1ccc(C)cc1NC(=O)c1ccc2c(=O)n3c(nc2c1)CCCCC3	inactive: 23.7%
Cc1nn(-c2ccc(C(=O)O)cc2)c2c1C(=O)CC(C)(C)C2	inactive: 22.9%
CC(=O)Nc1nc(-c2ccc3c(c2)CC(C)N3C(=O)C2CC2)c(C)s1 (stereo not drawn)	inactive: 23.9%
CS(=O)(=O)C1=C(O)C(=O)N(c2ccccc2)C1c1ccccc1 (stereo not drawn)	inactive: -11.3%
CS(=O)(=O)Nc1nc2n(n1)C(c1ccccc1)CC(c1ccccc1)N2 (stereo not drawn)	inactive: 11.2%
CC(=O)Nc1ccc(NC(=O)COc2ccc(S(=O)(=O)NC(C)c3ccccc3)cc2)cc1 (stereo not drawn)	inactive: 6.04%
O=c1[nH]c2cc3c(cc2cc1CN(Cc1cccnc1)C(=S)NCc1ccco1)OCCO3	inactive: 9.19%
NC(=O)c1cccc(-c2cccc3nccn23)c1	inactive: -5.92%
COc1cc(/C=N/NC(=O)c2ccc(=O)[nH]n2)ccc1O	inactive: 2.91%

SMILES	growth rescue (activation)
O=C(CN(CCO)c1ccccc1)Nc1ccc(Cl)c(S(=O)(=O)N2CCOCC2)c1	inactive: 3.44%
Cc1ccc(NC(=O)CCC(=O)OC(C)C(=O)c2ccccc2)cc1 (stereo not drawn)	inactive: 4.67%
COC(=O)c1c(C)[nH]c(C=Nc2ccc(OC)cc2)c1C	inactive: 12.6%
Cc1c(Br)c([N+](=O)[O-])nn1CC(=O)N(C)Cc1ccccc1	inactive: 19.9%
O=S(=O)(Nc1ncccn1)c1ccc(NC(=S)NCCc2ccc(Cl)cc2)cc1	inactive: -1.23%
O=C1c2ccccc2C(=O)N1CC(O)COc1ccc(Br)cc1 (stereo not drawn)	inactive: 10.6%
Cc1cccc(OCc2nnc(SCC(=O)N3CCCCC3)o2)c1	inactive: 27.8%
Cc1ccc(C(=O)CS(C)(=O)=O)cc1	inactive: 27.9%
CCOC(=O)C1(Cc2cccc(Cl)c2)CCCN(C(=O)c2cnn(CC)c2)C1 (stereo not drawn)	inactive: -4.65%
Cc1nc2ccccn2c1/C(O)=C1\C(=O)C(=O)N(CCN(C)C)C1c1cccnc1 (stereo not drawn)	inactive: -4.57%
Cn1c(SCC(=O)Nc2ccc(N3CCOCC3)cc2)nnc1-c1ccco1	inactive: -7.01%
Cc1ccc(S(=O)(=O)Nc2cc(=O)[nH]c(SCc3ccccc3Cl)n2)cc1	inactive: -7.5%
CC(NS(=O)(=O)c1ccc(Br)cc1)C(=O)NCC1CCCO1 (stereo not drawn)	inactive: -0.852%
CCn1c(/C=C/c2ccccc2Cl)nc2ccccc2c1=O	inactive: 14%
O=C(CCCN1C(=O)/C(=C/c2cccs2)SC1=S)Nc1ccccc1O	inactive: 4.06%
COc1cc(/C=N/NC(=O)/C(=C\c2ccc3c(c2)OCO3)NC(=O)c2ccccc2)ccc1O	inactive: 7.71%
COCCN(C(=O)CCC(=O)Nc1cc(C)on1)C(C(=O)NC1CCCC1)c1ccccc1F (stereo not drawn)	inactive: -23.1%
CN1CCCN(S(=O)(=O)c2cccc(Cl)c2Cl)CC1	inactive: 6.83%
COc1ccc(CN2CCN(C3CCSCC3)CC2CCO)c(C)c1C (stereo not drawn)	inactive: 1.57%
CCCCOc1ccc(C(=O)Nc2ccc3oc(-c4cccnc4)nc3c2)cc1	inactive: 7.66%
COc1ccccc1S(=O)(=O)Nc1cc(C)nn1-c1ccc(C)cc1	inactive: 25.6%
COc1ccc(OC)c(N(CC(=O)Nc2ccc3c(c2)OCCO3)S(C)(=O)=O)c1	inactive: 19.7%
NS(=O)(=O)c1ccc(NC(=O)c2ccc(-c3ccccc3)cc2)cc1	inactive: -10.3%

SMILES	growth rescue (activation)
CC(=O)N1c2ccccc2C(=O)OC1c1cccnc1 (stereo not drawn)	inactive: -13.2%
CCCNC(=S)N1CCN(C)CC1	inactive: -12.3%
CC1CCC2(CC1)NC(=O)N(CC(=O)NCc1cccs1)C2=O (stereo not drawn)	inactive: -18.8%
Cc1c([C@@H]2C[C@H]3CN(Cc4cccc(Cl)c4)C(=O)[C@]34CCCN24)cnn1C	inactive: 11.9%
Cc1nn(CC(=O)NC2CC2)c(C)c1S(=O)(=O)NC(C)(C)C	inactive: 17.9%
COc1ccc2c(c1OC)C(=O)N(c1ccc(F)cc1)C2	inactive: -5.24%
CCOc1cc(/C=C/c2cccc[n+]2C)ccc1OCC(=O)Nc1ccc(C)cc1	inactive: 3.09%
COc1cc(CNC(=O)C2CCCN2S(=O)(=O)c2ccccc2)cc(OC)c1OC (stereo not drawn)	inactive: -11.4%
CCOC(=O)C1CCN(S(=O)(=O)c2ccc(Cl)s2)CC1	inactive: 5.44%
COc1ccc(Cl)cc1NC(=O)C/C(C)=N/NC(=O)COc1ccc(C)cc1	inactive: 7.25%
COc1ccc(CN(C)C(=O)Cn2ccsc2=N)cc1OC	inactive: -11.9%
O=C(NC1CCN(S(=O)(=O)c2ccc(Cl)c(F)c2)CC1)c1cccnc1	inactive: 15.6%
COC(=O)c1ccc(CN2CCN(CCc3ccccc3)C(CCO)C2)cc1 (stereo not drawn)	inactive: -2.42%
O=S(=O)(c1ccc2c(c1)OCCO2)N1CCc2ccccc21	inactive: 8.23%
O=C(Nc1ccccc1C(F)(F)F)c1ccc(CN2CCC(Cc3ccccc3)CC2)cc1	inactive: 1.82%
CCC1(c2ccccc2)NC(=O)N(CC(=O)NCc2ccc(F)cc2)C1=O (stereo not drawn)	inactive: -4.41%
O=C1NC(=O)N(c2ccccc2)C1=O	inactive: 4.26%
O=C(CCN1C(=O)S/C(=C\c2cccs2)C1=O)NC1=NCCS1	inactive: 7.47%
O=C(O)CC(C(=O)NCc1ccccc1)C1CCCO1 (stereo not drawn)	inactive: 16.7%
Cc1cc([N+](=O)[O-])nn1CCCC(=O)Nc1cccc(Cl)c1Cl	inactive: 29.6%
C[C@@H](N)C(=O)NC[C@H]1CC[C@H](C(=O)N[C@@H](Cc2ccccc2)C(=O)O)CC1	inactive: -21.7%
COC(=O)c1cc(NS(=O)(=O)c2ccc(N3CCOCC3)c(N)c2)cc(C(=O)OC)c1	inactive: -9.83%
